Measured values: the BET-seq Pho4 binding data (Le et al. 2018)
This is one part of the list. The energies were worked out here from pooled read counts, against the library average; single values are noisy.

What follows are sequences tested against T1, Pho4 (S. cerevisiae) (UniProt P07270) (assay: relative binding free energy (BET-seq); higher = weaker binding). Details: reference: library average.
T1 sequence: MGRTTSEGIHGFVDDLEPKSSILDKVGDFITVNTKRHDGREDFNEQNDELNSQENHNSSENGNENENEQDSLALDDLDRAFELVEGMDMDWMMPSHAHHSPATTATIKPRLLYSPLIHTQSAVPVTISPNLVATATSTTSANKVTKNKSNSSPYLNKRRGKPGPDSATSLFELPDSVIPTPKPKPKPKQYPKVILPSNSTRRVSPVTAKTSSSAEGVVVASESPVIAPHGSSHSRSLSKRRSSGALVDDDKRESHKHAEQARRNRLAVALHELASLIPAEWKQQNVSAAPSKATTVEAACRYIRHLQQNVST

Sequence	relative binding free energy [kcal/mol]
GGGTGCACGTGTTTAT	0.04
CGTAACACGTGTTGGG	-0.06
TGTGCCACGTGTGCGT	-0.06
TGAGACACGTGATAGT	0
CATGGCACGTGCGGGG	-0.13
GCTTGCACGTGGAGTT	0.03
GTGGCCACGTGGTAAG	-0.05
GGCGGCACGTGGTAAG	0
GGGGGCACGTGAGTGG	0.18
TTGTCCACGTGGCTGG	-0.16
TTGTTCACGTGGGTGA	0.26
GGTTTCACGTGTGAGA	0.35
TATAGCACGTGGGGCG	-0.22
CGTGACACGTGGCGTT	0.04
TATTACACGTGTGATT	0.2
TTTAGCACGTGGAAAT	0.06
TTTTTCACGTGGGCCA	0.16
TTAATCACGTGGCGGG	0.01
GGGTGCACGTGGTCCT	-0.23
TTAGACACGTGTGAGA	0.04
ATGATCACGTGGTTAC	0.29
CAGTGCACGTGAATGG	0.16
TGAGACACGTGTGTTG	-0.12

Sequence	relative binding free energy [kcal/mol]
TTGGGCACGTGCGTTG	-0.1
AGGTACACGTGGTGAC	0.02
CGGTGCACGTGTGGAT	0.02
TATATCACGTGACTTT	0.18
GCTGACACGTGGGTTA	-0.09
AGCAGCACGTGTGTGG	-0.06
TTCATCACGTGTGTGC	0.26
GTTATCACGTGGTTTC	0.1
ATGTGCACGTGCAAGG	-0.21
AGCTGCACGTGAGTGG	0.09
ATACACACGTGGGGTA	-0.12
TGGAGCACGTGGGGAC	-0.01
ATTAACACGTGGGGTC	-0.22
TGGACCACGTGATGTG	-0.01
AATATCACGTGTGATG	0.17
TTTGTCACGTGGCAGT	0.05
GTAAGCACGTGGGGCA	-0.13
ATGGGCACGTGATTTA	-0.05
AAATTCACGTGTTAGA	0.28
GCGGTCACGTGGGTAT	-0.04
TGTAACACGTGTAGGG	-0.01
AAGAACACGTGCGGGG	0.05
ATGAACACGTGAATGG	0.36

Sequence	relative binding free energy [kcal/mol]
AACGTCACGTGTGTGG	0.11
GTATACACGTGAATGG	0.26
TCGATCACGTGAATGG	0.49
TTAAACACGTGTTTGG	-0.01
TATCTCACGTGTAAGT	0.32
GGGAGCACGTGCCGGG	-0.17
TGATGCACGTGATATA	0.17
CATTGCACGTGTTTTG	0.05
TGGCGCACGTGTTAGG	-0.04
TATCACACGTGGGGGT	-0.21
CGCGGCACGTGGCGAG	-0.08
GTAGTCACGTGCGTCT	0.16
TAATGCACGTGGGGAC	-0.16
GGGCGCACGTGCCTGG	-0.13
TGTTGCACGTGGTAAG	-0.07
GGTTGCACGTGATCTT	0
TGTCTCACGTGTGGAA	0.16
AAGGACACGTGGAGGT	0.08
AAATTCACGTGGTGTG	0.11
CTGCGCACGTGTGAGG	-0.03
TTTAGCACGTGTTCTG	-0.1
GGTTTCACGTGCAGTA	0.44
GATTTCACGTGTGGTC	0.57

Sequence	relative binding free energy [kcal/mol]
TGTGTCACGTGCGGCG	-0.05
CGACTCACGTGTTGTG	0.23
GTAAGCACGTGTAATT	0.1
TTTTTCACGTGGCATG	0.25
TTGGGCACGTGATGTG	0.02
TAGTGCACGTGTCGTG	-0.01
TGTGACACGTGTTACT	-0.14
GGTGACACGTGGCGGG	0.06
TTGTCCACGTGTAGTG	0.04
TAATTCACGTGATGTG	0.23
ATGAACACGTGTAGGG	0.04
TGGCTCACGTGGTCGG	0.12
TTGTTCACGTGTCTCG	0.17
ATCAGCACGTGGTTGT	-0.1
AGGTTCACGTGGACTG	0.24
TTAGGCACGTGTCTTT	-0.03
TTGGTCACGTGTCAAG	0.21
CAGGACACGTGTAAGT	0.22
GTGGACACGTGTAGAT	0.34
GGTTTCACGTGTACAT	0.24
GTTTACACGTGTTCGG	0.22
TTGGACACGTGGGCAA	0
TTCTGCACGTGGATGG	0.12

Sequence	relative binding free energy [kcal/mol]
GTAAGCACGTGGCGCG	-0.02
ACGTGCACGTGGGGTT	-0.13
TTGGACACGTGTAAGT	0.31
AGTGCCACGTGGAGTC	0.01
CGTATCACGTGGGGTG	-0.21
ATTTGCACGTGGTTGT	0.13
GCTAACACGTGTTAGG	0.07
TGAGCCACGTGTGGGC	-0.03
TAGGGCACGTGTTGTA	-0.15
GGGACCACGTGGGTGC	-0.2
AGCAGCACGTGATTTG	0.26
AAATGCACGTGGTAGG	-0.09
AATAGCACGTGGTTGT	-0.11
TAGATCACGTGCGTAT	0.11
TGGTACACGTGTGCTA	-0.12
TTATTCACGTGCAGAT	0.07
TTCTACACGTGGTTGA	0.01
TCTTGCACGTGTCTGG	-0.09
CGTAGCACGTGTGTAT	0
TTTTGCACGTGCTTAT	-0.02
AAGAACACGTGTGAGT	0.13
TGTTGCACGTGATAGG	0.09
GCAGTCACGTGTGTTT	0.28
